Measured values reported in paper PMC12136788.
Some of the results follow.

T1: UNK ZnF1-3 (human, UniProt Q9C0B0 31-174)
T1 sequence: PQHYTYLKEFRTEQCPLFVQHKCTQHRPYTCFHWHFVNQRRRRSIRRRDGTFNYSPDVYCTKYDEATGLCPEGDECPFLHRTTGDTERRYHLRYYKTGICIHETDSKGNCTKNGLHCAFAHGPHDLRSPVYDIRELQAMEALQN

B1: chr4:140265382:140265383:+_ENSG00000164134_ENST00000296543|hu_hu|motif|central (ssRNA)
RNA: GGGAGUUCUACAGUCCGACGAUCUUCUCUAUAGAGACCUGCUUCCCGAAGAACUUGAUUCUGAUAUAAGAGUAGUUCACGGUAUUCAUAAUCCACCUUGUCAGGGGAUGUCUGUUGUGUUUUCCUAAAUUCUUCUAAAAUCUUCAACAGAGGAUUGAGCAUCA
B2: chr10:75834556:75834557:+_ENSG00000035403_ENST00000372755|perfect_dup|FALSE|FALSE (ssRNA)
RNA: GGGAGUUCUACAGUCCGACGAUCAUUAAUUUCAGCACUCAUUUUUUCUACAGUAAAAUUGCGAUUUUUUAAAGCUUCCUCUAUGCCUUGGUUUUUUGAGUUUUUAGUUGUUACAAAAAUCUUCAUAGCUGAAAUGAGAACUGGCAACAGAGGAUUGAGCAUCA
B3: chr15:98867917:98867918:+_ENSMUSG00000043091_ENSMUST00000058914|mus_hu|motif|central (ssRNA)
RNA: GGGAGUUCUACAGUCCGACGAUCAGGGUCACAUUUCACCAUCUGGUUGGCUGGCUCAAAGCAAGCAUUGGUGAUCUCUGCGGCAGUAAGCUGUUCGUGGUAGGCUUUCUCAGCAGAGAUGACAGGGGCAUAUGUGGCCAGAGGCAACAGAGGAUUGAGCAUCA
B4: chr6:76550321:76550322:+_ENSG00000196586_ENST00000369975|hu_hu|FALSE|FALSE (ssRNA)
RNA: GGGAGUUCUACAGUCCGACGAUCAACAACUGAGCUCUUUUCAUUAAAAUGUAUUUCUACAAAUUUCCCAAAUCGACUGCUAUUAUUGUUGCGAACAGUCUUCGCAUUUCCAAAGGCUUCUAGGAGUGGGUUAGCUUCAACAAUCAACAGAGGAUUGAGCAUCA
B5: chr4:99997526:99997527:-_ENSG00000197894_ENST00000296412|hu_hu|motif|central (ssRNA)
RNA: GGGAGUUCUACAGUCCGACGAUCGGAAUAGUCCACUCCUCCAUCGGUCAUCUCAAUGAGCACUUCCUGGAUGGGUUUACGGAAAUCCUGAGGGUUAAUACAUUCAGUGGCUCCAAACUCUUUGGCCCUUGCAAAUUUAUCUUUCAACAGAGGAUUGAGCAUCA
B6: chr12:39763582:39763583:-_ENSG00000139116_ENST00000544797|hu_mus|hu_hu_hu_mus_False|8_18 (ssRNA)
RNA: GGGAGUUCUACAGUCCGACGAUCCUCUAGGAACUGGGCAUUCACUUUGAAUUCAGGAGGGGGCAGCCCGUUUUUAAUCGCUGAGGUCUUUUUCUCAUCAAUACUCUUGAACAGGUGUUUAACAGCUCGAGAAAUAAUGCCCUGCAACAGAGGAUUGAGCAUCA
B7: chr1:43830971:43830972:-_ENSG00000066322_ENST00000372458|hu_mus|FALSE|FALSE (ssRNA)
RNA: GGGAGUUCUACAGUCCGACGAUCUCGAAGUUGGAAGGGCUUCCGAUUAGCCAUGAUUCGAGGCCCAAGCGAUAGGAUGAAGUACACAUAGGUCAGAAGGAUGGAUGUUAUUAGCAAGGGGGACCCCAUCAGAGGGUAGCUUUGCAACAGAGGAUUGAGCAUCA
B8: chr11:47074021:47074022:+_ENSG00000149179_ENST00000278460|hu_mus|FALSE|FALSE (ssRNA)
RNA: GGGAGUUCUACAGUCCGACGAUCACCAUUUUUCCCUACAGUUCGGAAGCAUCUCCAGAAGGCCCGAAGGAAUGAUGCUCUAUUAUGAGGUGUGGCUUGUAUAAAGCUGAAUUCCCGGAAGAGAAUGUGAGUUCCUUGGCAUACCAACAGAGGAUUGAGCAUCA
B9: 13078290_13078410_1514_3pUTR_ENSMUSG00000030386_ENSMUST00000098822|mouse|control|control (ssRNA)
RNA: GGGAGUUCUACAGUCCGACGAUCUGCCAAUUUUUUGAUGUUCCAUAAAAGAUGAGAAAUAAAAGAUAUUCUCAUAUUCCUUAUAUUUCUCAUACUGGUUUCCUCCAAUUUGAAGUUUGGGGUAUUCAAUAAGUGAUGGGCUCUCAACAGAGGAUUGAGCAUCA
B10: 2404117_2406024_1226_CDS_ENSG00000106263_ENST00000360876|human|control|control (ssRNA)
RNA: GGGAGUUCUACAGUCCGACGAUCAAGGAUGUCCCAGAUGAUUAUGGCCUGAGGGUCAUCCUGCGUGUCCAUCAGGGGGCUAAAGGUCACCAGGUACCUUUCACAAGGUGAGAAGUCAAUAAGCUGAACCCCUUGGUGGCUGAACAACAGAGGAUUGAGCAUCA
B11: 57920494_57920614_1982_CDS_ENSG00000166987_ENST00000355673|human|control|control (ssRNA)
RNA: GGGAGUUCUACAGUCCGACGAUCACCAAAUAAACUGUGGUUGAGCAAUGGAGAAGGUGGAGGCUGCCCCAGACUCAGAGGGAGAGGCAAGGCCCCAAGCAUCCCAGGGAAGCCAGCUCCACUCAGUGCCAGGCCCUGCUCAGGCAACAGAGGAUUGAGCAUCA
B12: chr9:14812383:14812384:-_ENSMUSG00000031934_ENSMUST00000164273|mus_mus|mus_mus_mus_hu_True|78_88 (ssRNA)
RNA: GGGAGUUCUACAGUCCGACGAUCAUAGCCCAGGUAGAUACACGCUAACAGUAUAACCACAAAUGUCAGCAGGCGGCAGCUAAUGUACUUGAUGAUUAAAUUAUUAGAAUUUUUCUUUGUCUUCAAGUACUGCUCCACAAUUGGCAACAGAGGAUUGAGCAUCA
B13: 174000252_174001610_1256_CDS_ENSMUSG00000003458_ENSMUST00000003550|mouse|control|control (ssRNA)
RNA: GGGAGUUCUACAGUCCGACGAUCCUCCAGAGUGGCCAGAAGAUCCUCCACCUGGUUUUUCACAGACUCAUUUUUCUGAGACAUGGGAUCUGUGUGCAUCCAGAGAUCUAGUGAAGUUCUUAGGGCCACCUGUCCCAGCUCCACCAACAGAGGAUUGAGCAUCA
B14: chr3:176740097:176740098:-_ENSG00000177565_ENST00000430069|hu_mus|FALSE|FALSE (ssRNA)
RNA: GGGAGUUCUACAGUCCGACGAUCUGUUUUGUAUACCACAAAAGGAGGCACUUUCAGUAUCUGCAAAAGGUGUUUAGUCCUAAAACAUACUCACCUAGAGGAUAACUCAGGAAAACAAUCUGUUACACUCUAAGACCUACUCCACAACAGAGGAUUGAGCAUCA
B15: chr10:126663389:126663390:-_ENSMUSG00000074657_ENSMUST00000099172|mus_mus|FALSE|FALSE (ssRNA)
RNA: GGGAGUUCUACAGUCCGACGAUCGGGCUAUCUCAGGACCCUCCAAUGAAUGAAGCAUUUUCCACUGUGAGGGGGUAUGAAAAGAAAGAAAUUAUAACAAACGUUCCUCGCUCUGAAUUACUUUACCAUUUUGGUUGUUUCGUGCAACAGAGGAUUGAGCAUCA
B16: chr19:34925787:34925788:+_ENSG00000126261_ENST00000246548|perfect_dup|motif|central (ssRNA)
RNA: GGGAGUUCUACAGUCCGACGAUCGAGAUACCCAGCAGUCCCGCUCUCAAUGAGAGGCACAUCAGCGGCCAGACACAUCCGGUUCACGUGGUUUCGUGCAGCUCUGUUAUCUAAUGCAUUCAUGACCAAUAUAAACUGUCGAAACAACAGAGGAUUGAGCAUCA
B17: 167391948_167392068_9331_3pUTR_ENSG00000143190_ENST00000367866|human|control|control (ssRNA)
RNA: GGGAGUUCUACAGUCCGACGAUCUUCCAAAUUUUGGCUUUUUGCUCCUAUUCCCUCUGCCUGUUUUGAAAACUUAAGGAUAAGCAAUGACAUUAGCAGUGUCUUUGGUAUCUAAACCAAAUCCCACUUAAGUUCUGUGGGAUCCAACAGAGGAUUGAGCAUCA
B18: 8928483_8928603_414_3pUTR_ENSMUSG00000020585_ENSMUST00000020909|mouse|control|control (ssRNA)
RNA: GGGAGUUCUACAGUCCGACGAUCGGUAACUCGGUAAUUCACCGUCUCCCAGACGAGCUCCGCAAGGAGGAGAAGGGUGAAACAAGACGGAGUUGGUGGCAGACAGCGGGCACGGAGAUUUUUGGCGCUGUCUUUCGCCACGUUCAACAGAGGAUUGAGCAUCA
B19: chr6:135286264:135286265:-_ENSG00000112339_ENST00000367826|hu_mus|FALSE|FALSE (ssRNA)
RNA: GGGAGUUCUACAGUCCGACGAUCCUCUGGCAGCUGGCAACUGGGAAGUUUUGCAGAGUAAUCCUUAAUACUUGUUGGCAGCUAACUGUACUUUAGUGUCUCUCAUCUAACAAUCAUGACUGCAUGCUGUUUCCUUAGCUGCACCAACAGAGGAUUGAGCAUCA
B20: chr6:30403744:30403745:+_ENSMUSG00000029775_ENSMUST00000068259|mus_mus|FALSE|FALSE (ssRNA)
RNA: GGGAGUUCUACAGUCCGACGAUCAGGAGAAGGCUAAACACUGAUUAUCUAUGGAUUUCGAUUGUGUGUGCUUUCACCUUGCUACAGUGGAUAACGAAAGAUCAGUCAUACUUUUAAUCUAGAAAUGUUAAUAUUUUCAUCAUACAACAGAGGAUUGAGCAUCA
B21: chr2:179515052:179515053:+_ENSMUSG00000000305_ENSMUST00000000314|mus_hu|mus_mus_mus_hu_False|28_78 (ssRNA)
RNA: GGGAGUUCUACAGUCCGACGAUCGCUGUCCCAUGCAGUCACCGUGAACGCCACCUGCUCUGAGGGGACCUGCAGCUCCCGGGUGGCGAAGACUGUCCCAUCUGCCCCGACUUUGAAGUCCAUGCUGUUGGUCUCAUAUUGUGUCAACAGAGGAUUGAGCAUCA
B22: chr17:60770872:60770873:+_ENSG00000011028_ENST00000303375|hu_hu|hu_hu_hu_mus_True|18_28 (ssRNA)
RNA: GGGAGUUCUACAGUCCGACGAUCUCUUUAAAAAAAAAAAAAAAAAGACAAACAAUAAUAGCACAUUUCGAGAAUCAAGAACUACAAUAGAGGGUCCGCUUUGAGUUGUCCAUGUUCACAUUGUCCCCUGGGACACGGGGACUGCAACAGAGGAUUGAGCAUCA

What follows are binders tested against T1, UNK ZnF1-3 (assay: nsRBNS (natural sequence RNA bind-n-seq); RBNS binding buffer (assumed for nsRBNS): 25 mM Tris pH 7.5, 150 mM KCl, 3 mM MgCl2, 0.01% Triton X-100, 500 ug/ml BSA, 20 U/ml SUPERase-In, 4 C; UNK is unkempt and MSI1 is Musashi-1; names of the RNAs are library labels; protein concentration not given here; high values mean tight binding).
With B1 the binding signal was 1.09 enrichment R.
B2 showed a binding signal of 0.841 enrichment R.
Binder B3 has a binding signal of 1.05 enrichment R.
In the case of B4, the binding signal is reported as 1.04 enrichment R.
In the case of B5, the binding signal is reported as 0.86 enrichment R.
B6 was tested, and the binding signal was 1.43 enrichment R.
For B7, the binding signal was 1.68 enrichment R.
B8 showed a binding signal of 1.52 enrichment R.
Work on B9 yielded a binding signal of 0.559 enrichment R.
With B10 the binding signal was 0.527 enrichment R.
In the case of B11, the binding signal is reported as 1.7 enrichment R.
With B12 the binding signal was 1.57 enrichment R.
In the case of B13, the binding signal is reported as 0.581 enrichment R.
With B14 the binding signal was 0.816 enrichment R.
Binder B15 has a binding signal of 1.04 enrichment R.
For B16, the binding signal was 0.496 enrichment R.
Work on B17 yielded a binding signal of 0.838 enrichment R.
B18 showed a binding signal of 0.903 enrichment R.
B19 showed a binding signal of 0.795 enrichment R.
B20 showed a binding signal of 0.727 enrichment R.
For B21, the binding signal was 0.68 enrichment R.
For B22, the binding signal was 2.74 enrichment R.
